Consider 3 molecules from patent publication US12485299B2, “Antibody-immune agonist conjugate and applications thereof” (GENEQUANTUM HEALTHCARE (SUZHOU) CO., LTD., priority 2021, dated 2025).

Experiment [1] relates to NCI-N87-Claudin 18.2 human gastric cancer cells overexpressing human Claudin 18.2 and human PBMC. Kind of experiment: TNFα induction in co-culture of human PBMC with NCI-N87-Claudin 18.2 cells. Conditions: NCI-N87-Claudin 18.2:PBMC 1:5; compared with antibody Ab0098. In kind it is cell-based. The method, then: (§1) Human peripheral mononuclear cells were isolated from healthy blood donors using SepMate 50 and Lymphoprep (Stem Cell Technologies). The live cells was counted and the cell concentration was adjusted to 1.25×10^6/ml in RPMI1640 medium with 10% FBS. Tumor cells were detached by trypsin, and collected. The live cells was counted and the cell concentration was adjusted to 2.5×10^5/ml in RPMI1640 medium with 10% FBS. 12.5×10^4 human PBMC and 2.5×10^4 tumor cells (PBMC: tumor cells=5:1) were added into wells of 96 well plate, then the antibody or conjugate was added at indicated concentrations. The cell mixture was incubated with drugs for 18 hours, then the cell-free supernatant was collected for human TNFα ELISA.
(§2) Claudin 18.2 could also serve as an example of AIAC targets. To evaluate the activity of Claudin 18.2-targeted immunoconjugates, NCI-N87—Claudin 18.2 human gastric cancer cells overexpressing human Claudin 18.2 or parental NCI-N87 cells were co-cultured with human PBMC at a ratio of 1:5, and the test immunoconjugate (AC102-8-3-1 or AC201-1-3-1) or naked unmodified anti-Claudin 18.2 antibody at indicated concentrations were added, respectively. The isolation of human PBMC and experimental setting were similar to Effect Example 1.

In experiment [2] the test system is Claudin 18.2-negative NCI-N87 parental cells and human PBMC. Kind of experiment: TNFα induction in co-culture of human PBMC with Claudin 18.2-negative NCI-N87 parental cells. Format: cell-based. Particulars: Claudin 18.2-negative NCI-N87 parental cells:PBMC 1:5. The protocol: as §1, §2
Experiment [3] concerns NUGC4 human gastric cancer cells. Kind of experiment: In vivo anti-tumor efficacy of anti-Claudin 18.2-AIAC, NUGC4 model. Conditions: 5 mg/kg intravenously on day 0 and 14, NUGC4 in BALB/c nude mice. The protocol:
The in vivo anti-tumor efficacy of anti-Claudin 18.2-AIAC was evaluated using a NUGC4 model. One million of NUGC4 human gastric cancer cells were inoculated subcutaneously in the right flank in BALB/c nude mice to generate xenograft model. After tumor volume reaching 108 mm^3 on average, the tumor bearing mice were assigned and administered intravenously of the test anti-Claudin 18.2 conjugate (AC102-8-3-1) or the corresponding naked unmodified antibody at 5 mg/kg on day 0 and 14. The tumor volume was measured twice weekly with calipers.

B1: AC102-8-3-1 (conjugate)
light: DIVMTQSPSSLTVTAGEKVTMSCKSSQSLLNSGNQKNYLTWYQQKPGQPPKLLIYWASTRESGVPDRFTGSGSGTDFTLTISSVQAEDLAVYYCQNDYSYPFTFGSGTKLEIKRTVAAPSVFIFPPSDEQLKSGTASVVCLLNNFYPREAKVQWKVDNALQSGNSQESVTEQDSKDSTYSLSSTLTLSKADYEKHKVYACEVTHQGLSSPVTKSFNRGECGALPETGG
heavy: QVQLQQPGAELVRPGASVKLSCKASGYTFTSYWINWVKQRPGQGLEWIGNIYPSDSYTNYNQKFKDKATLTVDKSSSTAYMQLSSPTSEDSAVYYCTRSWRGNSFDYWGQGTTLTVSSASTKGPSVFPLAPSSKSTSGGTAALGCLVKDYFPEPVTVSWNSGALTSGVHTFPAVLQSSGLYSLSSVVTVPSSSLGTQTYICNVNHKPSNTKVDKRV[human IgG1 Fc not listed]
Consider B1, for which the figures for the TNFα production result in experiment [1] and in experiment [2] were “higher TNFα production compared to antibody Ab0098” and “negligible induction of TNFα production at very high doses”, respectively. Besides, the “anti-tumor activity (tumor volume)” value in experiment [3] is on record as “showed anti-tumor activity”.

B2: AC201-1-3-1 (conjugate)
light: DIVMTQSPSSLTVTAGEKVTMSCKSSQSLLNSGNQKNYLTWYQQKPGQPPKLLIYWASTRESGVPDRFTGSGSGTDFTLTISSVQAEDLAVYYCQNDYSYPFTFGSGTKLEIKRTVAAPSVFIFPPSDEQLKSGTASVVCLLNNFYPREAKVQWKVDNALQSGNSQESVTEQDSKDSTYSLSSTLTLSKADYEKHKVYACEVTHQGLSSPVTKSFNRGECGALPETGG
heavy: QVQLQQPGAELVRPGASVKLSCKASGYTFTSYWINWVKQRPGQGLEWIGNIYPSDSYTNYNQKFKDKATLTVDKSSSTAYMQLSSPTSEDSAVYYCTRSWRGNSFDYWGQGTTLTVSSASTKGPSVFPLAPSSKSTSGGTAALGCLVKDYFPEPVTVSWNSGALTSGVHTFPAVLQSSGLYSLSSVVTVPSSSLGTQTYICNVNHKPSNTKVDKRV[human IgG1 Fc not listed]
For B2, the TNFα production entry in experiment [1] is recorded as “higher TNFα production compared to antibody Ab0098”; in experiment [2], “negligible induction of TNFα production at very high doses”.

B3: Ab0098: naked unmodified anti-Claudin 18.2 antibody (light chain SEQ ID No. 21, heavy chain SEQ ID No. 22) (antibody)
heavy: QVQLQQPGAELVRPGASVKLSCKASGYTFTSYWINWVKQRPGQGLEWIGNIYPSDSYTNYNQKFKDKATLTVDKSSSTAYMQLSSPTSEDSAVYYCTRSWRGNSFDYWGQGTTLTVSSASTKGPSVFPLAPSSKSTSGGTAALGCLVKDYFPEPVTVSWNSGALTSGVHTFPAVLQSSGLYSLSSVVTVPSSSLGTQTYICNVNHKPSNTKVDKRV[human IgG1 Fc not listed]
light: DIVMTQSPSSLTVTAGEKVTMSCKSSQSLLNSGNQKNYLTWYQQKPGQPPKLLIYWASTRESGVPDRFTGSGSGTDFTLTISSVQAEDLAVYYCQNDYSYPFTFGSGTKLEIKRTVAAPSVFIFPPSDEQLKSGTASVVCLLNNFYPREAKVQWKVDNALQSGNSQESVTEQDSKDSTYSLSSTLTLSKADYEKHKVYACEVTHQGLSSPVTKSFNRGEC
modifications: Ab0098 Heavy chain; Ab0098 Light chain
On to B3, for which, in experiment [3], the “anti-tumor activity (tumor volume)” value is recorded as “no anti-tumor activity”.
